Test results reported in PMC9804489, “Phase 1/1b Studies of UCB0599, an Oral Inhibitor of α‐Synuclein Misfolding, Including a Randomized Study in Parkinson's Disease” (Movement Disorders, 2022).

Legend:
[1] = UP0077 phase 1b study: safety and tolerability in participants with PD
[2] = UP0078 phase 1 food/ITZ study: safety and tolerability in healthy participants; conditions: UP0078
[3] = UP0078 phase 1 study: effect of food and ITZ on single-dose PK of UCB0599; type: in vivo, human; conditions: for Tmax / AUC(0-t) / Cmax / half-life: human, plasma, oral, UCB0599 180 mg single dose; for AUC(0-t): read-out: AUC(0–t), geometric mean (CV%); for Cmax: read-out: Cmax, geometric mean (CV%); for half-life: read-out: Half-life, geometric mean (CV%) (converted)
Procedure: Statistical evaluations for all three studies were performed using SAS version 9.4 (SAS, Cary, NC, USA), and PK data were analyzed using Phoenix WinNonlin software (Certara, Princeton, NJ, USA). Continuous variables were summarized with number of participants, mean, standard deviation, median, minimum and maximum, and confidence intervals (CI) for the mean. Categorical variables were summarized with frequency counts and percentages.

aggregated ASYN = tested on: aggregated ASYN; set-up: method as in ref 16 = [16]; 16 Price D , Khan A , Angers R , et al. Preclinical in vivo characterization of UCB0599, an orally available, small molecule inhibitor of α‐Synuclein Misfolding in development for Parkinson's disease; conditions: chronic in‐vivo dosing, ASYN transgenic mice; cited from earlier work
[4] = UP0077, UCB0599 180 mg/day, n=7
[5] = UP0077, UCB0599 360 mg/day, n=14

With `CCCC[C@H](Cc1c[nH]c2ccccc12)NC(=O)c1cnc(N2CCN(C)CC2)s1` [UCB0599] the Hypersensitivity reactions ([1]; UP0077) was 2 n, the “Any related TEAE (considered related to study medication)” value (“Any related TEAE” for short) [1, 4] was 4 (57) n (%) and the “Related TEAE Glomerular filtration rate decreased” value [1, 4] was 0 n (%). For the same molecule, the “Related TEAE Headache” value [1, 4] was 3 (43) n (%), the “Related TEAE Hypotension” value [1, 4] was 0 n (%) and the “TEAE Glomerular filtration rate decreased” value [1, 4] was 0 n (%) […]. The “TEAE Hypotension” value [1, 4] was 0 n (%) […], the “TEAE Post-lumbar puncture syndrome” value [1, 4] was 0 n (%) […] and the “TEAE Syncope” value [1, 4] was 0 n (%) […]. For the same molecule, the “Discontinuations due to TEAEs” value ([1]; UP0077, UCB0599 360 mg/day group) was 1 n, the “Any related TEAE” value [1, 5] was 5 (36) n (%) and the “Related TEAE Glomerular filtration rate decreased” value [1, 5] was 2 (14) n (%). For the same molecule, the “Related TEAE Headache” value [1, 5] was 2 (14) n (%), the “Related TEAE Hypotension” value [1, 5] was 2 (14) n (%) and the “TEAE Syncope” value [1, 5] was 0 n (%) […]. For the same molecule, the “Any related TEAE” value ([1]; UP0077, total UCB0599 N=21) was 9 (43) n (%), the “Related TEAE Glomerular filtration rate decreased” value ([1]; UP0077, total UCB0599 N=21) was 2 (10) n (%) and the “Related TEAE Headache” value ([1]; UP0077, total UCB0599 N=21) was 5 (24) n (%). The “Related TEAE Hypotension” value ([1]; UP0077, total UCB0599 N=21) was 2 (10) n (%), the “TEAE Syncope” value ([1]; UP0077, total UCB0599 N=21) was 0 n (%) […] and the “Participants reporting TEAEs” value ([1]; UP0077, total UCB0599 group) was 81%. The “Treatment‐related adverse events, participants” value ([1]; UP0077, total UCB0599 group) was 43%, the “Participants reporting TEAEs” value [2] was 27.3% and the “TEAE considered related to the substance” value [2] was 4.5%. For the same molecule, the “Vital signs, laboratory evaluations, physical examinations, or ECG findings” value [2] was “No clinically significant abnormalities”, the “Increase of area under the curve on co‐administration with ITZ” value ([3]; co‐administration with ITZ) was 2 to 3 fold and the “Increase of maximum plasma concentration on co‐administration with ITZ” value ([3]; co‐administration with ITZ) was ~ 1.3 fold. It also gave a Tmax ([3]; 180 mg, fasted, n=22) of 1.5 h, an AUC(0-t) ([3]; 180 mg, fasted, n=22) of 5980 ng·h/mL and a Cmax ([3]; 180 mg, fasted, n=22) of 738 ng/mL. For the same molecule, the half-life ([3]; 180 mg, fasted, n=22) was 9.3 h, the Tmax ([3]; 180 mg, fed, n=22) was 3 h and the AUC(0-t) ([3]; 180 mg, fed, n=22) was 6520 ng·h/mL. The Cmax ([3]; 180 mg, fed, n=22) was 771 ng/mL, the half-life ([3]; 180 mg, fed, n=22) was 9.6 h and the Tmax ([3]; 180 mg, with ITZ, n=21) was 2 h. For the same molecule, the Cmax ([3]; 180 mg, with ITZ, n=21) was 964 ng/mL, the half-life ([3]; 180 mg, with ITZ, n=21) was 15.9 h and the AUC(0-t) ([3]; fasted with ITZ 200 mg once daily, n=21) was 16500 ng·h/mL. The “Aggregated ASYN levels” value (aggregated ASYN) was “decreased” and the “Functional motor endpoints associated with PD” value (aggregated ASYN) was “improved”.

Read-outs that look alike come from different tables or passages of the source.
